Laboratory results as given in PubChem BioAssay AID602233 (National Center for Advancing Translational Sciences (NCATS), 2012).
Screen size: about 380,000 compounds; about 170 (0.045%) were called active. Calls follow the shape of the dose curve; as a rule, active = well fitted inhibition curve with a large enough effect; inconclusive = small, poorly fitted or top-dose-only effect; inactive = no such curve, though single readings can be large or run the other way. The list shows a part of the results, in another mix than the full data. More than one record can exist for a structure, and the calls need not agree. Where a SMILES comes first, the peptide text is derived from it. Bridges are numbered along the chain shown (N, C = ends). [ ]: non-standard residue; d: D form. The star is where a group is joined. X1 = CCC(C)C(N)C1=NC(C(=O)*)CS1; dOrn = NCCC[C@@H](N)C(=O)O

Target: Phosphoglycerate kinase, glycosomal (Trypanosoma brucei brucei) (UniProt P07378)
Assay: qHTS Assay to Find Inhibitors of Phosphoglycerate Kinase; also: nearly all actives have a fitted effect of over 60% in size
Conditions: PGK/GAPDH coupled, Kinase-Glo luminescence, 60 min; series mostly up to 57.5 µM; activity change, negative = inhibition: at the top concentration
From the text: Several species of the Trypanosomatidae family of parasitic protozoans cause a spectrum of diseases throughout the tropical and subtropical world. Sleeping sickness, caused by two subspecies of Trypanosoma brucei, is endemic to areas of sub-Saharan Africa, while Chagas disease, a manifestation of Trypanosoma cruzi infection, is prevalent throughout Central and South America. In addition, many species of Leishmania are responsible for a range of cutaneous and visceral diseases, causing ulcers, destructive lesions and kalaazar, a lethal infection of the viscera. Collectively, these organisms infect 30 million people worldwide (~500 million live in endemic areas), and account for ~130,000 deaths annually. Given their debilitating and prevalent nature, trypanosomatid parasites impose a heavy medical, economic and social burden on entire populations, primarily in the developing world. The problem is further exacerbated by the fact that existing treatments have progressed little in the past 50 years, and current drugs show high toxicity and poor efficacy. […] Blood-stream stages of T. brucei are entirely dependent on glycolysis as a source of ATP, and the tricarboxylic acid cycle and oxidative phosphorylation are both repressed. Glycolysis in axenically cultured T. cruzi, representing the intracellular pathogenic stage, is also essential for these parasites. […] Previous studies have shown that the glycolytic enzyme, phosphoglycerate kinase (PGK), is a viable target for drugs to kill these parasites. […] NIH Molecular Libraries Probe Production Network [MLPCN] NIH Chemical Genomics Center [NCGC] MLPCN Grant: R03 MH093212 PI Name: Malcolm Walkinshaw, University of Edinburgh
3ul of substrate/PGK buffer (columns 1,2,5-48) are dispensed into Greiner white solid bottom 1536-well assay plates; columns 3-4 receive only TEA buffer as 0x PGK controls. Compounds are then transferred via Kalypsys pin tool equipped with 1536-pin array (10nl slotted pins, V&P Scientific, San Diego, CA). Following addition of compound, 1ul of GAPDH (100nM final concentration, all columns) is added to initiate the reaction (this upstream coupling enzyme is necessary for in-well production of PGK substrate, 1,3-bisphosphoglycerate (1,3-BPG), which is unstable and not commercially available). The plates are then incubated at room temperature for 60 minutes. Kinase-Glo Plus reagent is added (2ul) and plates incubated for 10 minutes, before being transferred to a ViewLux high-throughput CCD imager (PerkinElmer) wherein single end-point measurements of luminescence are acquired using a clear filter. All reagents are diluted in an assay buffer consisting of 100mM TEA (pH 7.6), 5mM MgCl2 and 0.01% Tween-20.
Potency is read from the fitted curve at half-maximal effect.

Activity change, negative = inhibition, inactive:
Cc1ccc(-c2csc(N(CCCN(C)C)C(=O)c3ccco3)n2)cc1 -0.533%
CC(CCc1ccccc1)NC(=O)CNC(=S)N(Cc1cccs1)C1CCCC1 (stereo not given) 22%
O=c1cc(-c2ccc(O)cc2)oc2cc(O)c([C@@H]3O[C@H](CO)[C@@H](O)[C@H](O)[C@H]3O)c(O)c12 -5.03%
CCOc1ccccc1NC(=O)CSCC(=O)Nc1ccccc1 20.8%
COc1ccc(OC)c(NC(=O)c2nc3ccccc3s2)c1 12.7%
COc1cc(NC(=O)c2cnc(N)s2)cc(C(=O)Nc2cccc(C(F)(F)F)c2)c1 5.87%
CC(C)n1c(O)c(/C=C2\C=NN=C2c2ccccc2)sc1=S 14%
Cc1ccc(C2NC(=S)NC3=C2C(=O)CCC3)cc1 (stereo not given) 3.68%
Cc1cccc(NC(=S)N(CCN2CCOCC2)Cc2ccccc2F)c1 10.4%
CC(C)(C)OC(=O)C[C@@H]1C/C=C\C[C@H](CC(=O)N[C@H](CO)Cc2ccccc2)C(=O)N[C@H](C(C)(C)C)COC1=O -5.39%
COCc1[nH]c(=S)c(C#N)cc1C(=O)OC 24.3%
COc1ccc(NC(=O)Nc2ccc(F)c(F)c2)c(OC)c1 3.28%
CCOC(=O)c1c(NC(=O)CN2CCN(C)CC2)sc(C(=O)Nc2ccccc2)c1C 22.7%
CCOC(=O)CNC(=O)C12CC3CC(CC(C3)C1)C2 23.1%
C/C=C/c1cc(OC)c2c(c1)[C@H](C)[C@@H](c1ccc(O)c(OC)c1)O2 -9.05%
O=C(NCC1CCCN1S(=O)(=O)c1cccs1)c1ccc(Cl)cc1 (stereo not given) 21.8%
COC(=O)c1ccc(C)c(NC(=S)NCc2ccc(Cl)cc2)c1 27.3%
O=C(Nc1cc(-c2ccccc2)sc1C(=O)O)c1cccc(F)c1 -10.6%
CC(/C=C/c1ccc(Cl)o1)=C\C(=O)O -5.96%
Cc1ccc(SCc2nc3ccccc3n2CC(=O)Nc2c(C)cccc2C)cc1 23.4%
O=C(/C=C/c1ccc(Cl)cc1)NC(=S)Nc1ccc(CN2CCOCC2)cc1 20.9%
Oc1ccc(C[C@@H]2CNCCN2CCc2cccc3ccccc23)cc1 -5.43%
Cc1ccc(C(=O)O)cc1N1C(=O)CCCC1=O 24.2%
CCOC(=O)c1c(C)[nH]c(C(=O)OCC(=O)N2c3ccccc3CC2C)c1C (stereo not given) 18.1%
CC1CCCCN1C(=O)Cn1cnc2cc([N+](=O)[O-])ccc2c1=O (stereo not given) 8.4%
N[C@@H](Cc1cc(I)c(Oc2ccc(O)c(I)c2)c(I)c1)C(=O)O -0.193%
NCCCC[C@@H]1NC(=O)[C@H](CCC(=O)O)NC(=O)c2cc([N+](=O)[O-])cc(I)c2OCC[C@@H](C(N)=O)NC1=O -17.3%
CC1(C)Cc2c(sc3ncn(N)c(=N)c23)CO1 25.6%
COc1cc(C(=S)N2CCCC2)ccc1O 18.4%
CCC(=O)N1CCN(c2ccc(NC(=O)c3ccc([N+](=O)[O-])o3)cc2Cl)CC1 35.2%
Cc1c(C(=O)NCc2ccccn2)oc2ccc(S(=O)(=O)N3CCC4(CC3)OCCO4)cc12 33.1%
O=C1Nc2ccc(Br)cc2/C1=N\N=C\C1=C(N2CCOCC2)C(=C/c2ccccc2)/CC1 -11.1%
c1csc(Cc2nc3ccccc3[nH]2)c1 20.8%
CCOc1ccc(/C=C2\SC(=S)N(CCC(=O)Nc3ccc(C(=O)O)cc3)C2=O)cc1 -23.8%
CC(C)(C)OC(=O)C[C@H]1C/C=C\C[C@H](CC(=O)N[C@H](CO)Cc2ccccc2)C(=O)N[C@H](C(C)(C)C)COC1=O -9.59%
Cc1ccc(C(=O)CCC(=O)Nc2cccc(C(F)(F)F)c2)cc1C 19.7%
COC(=O)C1=CNC=C(C(=O)OC)C1c1cccc(OC)c1 21.9%
CC(C)(C)OC(=O)C[C@H]1C/C=C\C[C@@H](CC(=O)NCCO)C(=O)N2CCC[C@H]2COC1=O -5.66%
O=C(CCNC(=O)c1ccccc1)Nc1cccnc1 34.5%
O=C(CCN1C(=O)/C(=C\c2ccco2)SC1=S)Nc1ccc(C(=O)O)c(O)c1 -20.7%
CCOC(=O)c1c(S(=O)(=O)NCC(=O)Nc2cc(C)ccc2OC)c(C)n(C)c1C -3.62%
O=C1C2C3C=CC(c4ccccc4)(C2C(=O)N1c1cccc(Cl)c1)C1C(=O)N(c2cccc(Cl)c2)C(=O)C31 (stereo not given) 34.5%
CCCCOc1ccc(N2C(=O)C(C)CNC2=S)cc1 (stereo not given) 18.3%
COc1ccccc1/C=N/NC(=O)c1ccc(NC(=O)c2ccccc2Br)cc1 19%
O=C(Nc1nc(-c2ccccc2Cl)cs1)c1cccnc1 24.2%
Cc1cccc(Cc2cnc(N3C(=N)SC(C)C3=O)s2)c1 (stereo not given) -1.14%
CC(C)(C)OC(=O)C[C@@H]1C/C=C\C[C@H](CC(=O)N(CCO)Cc2ccccc2)C(=O)NC[C@@H](c2ccccc2)OC1=O 1.58%
CCC1(c2ccccc2)NC(=O)N(CC(=O)Nc2cc(S(=O)(=O)N3CCCCC3)ccc2N(C)C)C1=O (stereo not given) 18.1%
CC(C)(C)OC(=O)C[C@@H]1C/C=C\C[C@H](CC(=O)NCCO)C(=O)N2CCC[C@@H]2COC1=O -0.504%
O=C(NC1CCN(Cc2ccccc2)CC1)c1cccc(S(=O)(=O)Nc2cc(C(F)(F)F)ccc2Cl)c1 23.7%
COc1ccc2nc(C)cc(N3CC(C)OC(C)C3)c2c1 (stereo not given) 19.7%
O=C(CNC(=S)N(Cc1ccccc1)Cc1cccnc1)NCCN1CCOCC1 0.663%
CC(=O)Nc1ccccc1Sc1ccccc1 23.5%
O=C(CCCSc1ccccc1)Nc1ccc(Cl)c(S(=O)(=O)N2CCOCC2)c1 23.3%
CC(C)(C)OC(=O)C[C@@H]1C/C=C\C[C@H](CC(=O)N(CCO)Cc2ccccc2)C(=O)NC[C@H](c2ccccc2)OC1=O -4.06%
CC(C)(C)OC(=O)C[C@@H]1C/C=C\C[C@@H](CC(=O)N(CCO)Cc2ccccc2)C(=O)NC[C@H](c2ccccc2)OC1=O 2.42%
COc1ccc(CNc2nc(SCC(=O)NCc3ccco3)nc3ccccc23)cc1 17.1%
C=CCC1C=CCC(CC=C)N1C(=O)c1ccccc1[N+](=O)[O-] (stereo not given) 22.7%
O=C(O)CCCCCN1C(=O)/C(=C\c2cn(-c3ccccc3)nc2-c2cccs2)SC1=S -23.8%
COC(=O)C1=C(N)Oc2c(oc(CO)cc2=O)C1c1ccccc1F (stereo not given) 25.2%
O=C(O)/C=C\C(=O)NNC(=O)c1cc(-c2ccccc2)n[nH]1 -18.1%
O=[N+]([O-])c1ccccc1/C=N/Nc1nnc(-c2ccccc2)c(-c2ccccc2)n1 20.8%
CC(=O)NN1C(=O)/C(=C\c2ccc(Br)o2)SC1=S -2.62%
CCOC(=O)COc1cc(OCC(=O)OCC)c2c(=O)cc(-c3ccccc3)oc2c1 24.4%
CSCCC(NS(=O)(=O)c1ccc(C)cc1)C(=O)N1CCCCCCC1 (stereo not given) 23.2%
COc1ccc(C2=Nn3c(nnc3-c3ccncc3)SC2)cc1OC 18.8%
COc1ccc(NS(=O)(=O)c2ccc3c(c2)[C@H]2C=CC[C@H]2[C@@H](c2ccc(C(=O)O)cc2)N3)cc1 -24.3%
CCN(CC)C(=O)CC(c1ccccc1)c1ccco1 (stereo not given) 17.8%

Potency, active:
O=C(O)c1ccc(-c2ccc(/C=c3/sc4nc5ccccc5n4c3=O)o2)cc1Cl 10 µM
O=C1NC(=S)S/C1=C\C=C\c1ccc([N+](=O)[O-])o1 28.2 µM
O=C(O)c1cccc(N2C(=O)c3cc([N+](=O)[O-])cc4cc([N+](=O)[O-])cc(c34)C2=O)c1 25.1 µM
C=Cc1c(C)c2cc3[nH]c(cc4nc(cc5nc(cc1[nH]2)C(C)=C5CCC(=O)O)C(CCC(=O)O)=C4C)c(C)c3C=C 10 µM
Nc1c(C(=O)O)cnc2c(-c3ccc(Cl)cc3)cnn12 31.6 µM
O=C(O)/C=C/c1ccc([N+](=O)[O-])o1 15.8 µM
O=C(CCS(=O)(=O)c1ccc(Br)cc1)NCc1ccco1 12.6 µM
COc1ccc(-c2cc3nc(C)n(N)c(=O)c3s2)cc1 4.47 µM
O=C(O)C1=CCC=CC1C(=O)O (stereo not given) 12.6 µM
Cc1ccc(C(=O)O/N=C(\N)c2ccccn2)cc1 25.1 µM
C=C(C)C(=O)Nc1cccc(C2=NOC3(C2)C[C@@H](C(N)=O)N(C(=O)c2cc([N+](=O)[O-])cc([N+](=O)[O-])c2C)C3)c1 (stereo not given in full) 11.2 µM
O=C(O)c1ccccc1NS(=O)(=O)c1ccc(N/N=C/c2cccc(O)c2O)c([N+](=O)[O-])c1 8.91 µM
COc1ccc(-c2nn(-c3ccccc3)cc2/C=C2/SC(=S)N(CCC(=O)O)C2=O)cc1 20 µM
O=c1oc2c(O)c(O)cc3c(=O)oc4c(O)c(O)cc1c4c23 0.891 µM
O=C(CN1C(=O)/C(=C/c2ccco2)SC1=S)Nc1ccc(C(=O)O)c(O)c1 28.2 µM
CC(=O)c1ccc(NC(=O)CN2C(=O)CCc3cc(S(=O)(=O)N4CCC(C)CC4)ccc32)cc1 25.1 µM
O=C(O)C1Nc2ccc(Br)cc2C2C=CCC12 (stereo not given) 31.6 µM
O=C(O)CC(C(=O)O)N1C(=O)/C(=C/c2ccc(-c3nc4ccccc4s3)o2)SC1=S (stereo not given) 25.1 µM
O=CC(O)C1OC(=O)C(O)C1O (stereo not given) 6.31 µM
CCC(C)C(N)C1=NC(C(=O)N[C@@H](CC(C)C)C(=O)N[C@H](CCC(=O)[O-])C(=O)N[C@H](C(=O)N[C@H]2CCCCNC(=O)[C@H](CC(N)=O)NC(=O)[C@@H](CC(=O)[O-])NC(=O)[C@H](Cc3cnc[nH]3)NC(=O)[C@@H](Cc3ccccc3)NC(=O)[C@H]([C@@H](C)CC)NC(=O)[C@@H](CCCN)NC2=O)[C@@H](C)CC)CS1.[Zn+2] (stereo not given in full) (X1-L[dE]IK[dOrn]I[dF]H[dD]N; lactam 4-C) 28.2 µM

outcome, inactive:
O=C(CN1C(=O)S/C(=C/C=C/c2ccccc2)C1=O)Nc1ccc(C(=O)O)cc1
Cc1ccc(CNS(=O)(=O)c2ccc3c(c2)CCN3C(=O)CCCC(=O)O)cc1
